Measured values as given in paper PMC6919601, “Identification of Plasmodium dipeptidyl aminopeptidase allosteric inhibitors by high throughput screening” (PLoS ONE, 2019).
Among all 110,000 compounds or so, about 230 (0.21%) showed an effect of 50% or more. Some of the results follow.

These compounds were tested against DPAP1 (Plasmodium falciparum, UniProt Q8IIJ9) (assay: primary screen, percent inhibition; read by cleavage of a fluorogenic dipeptide substrate; higher = more effect of the substance).
DPAP1, sequence (Q8IIJ9 whole entry, looked up): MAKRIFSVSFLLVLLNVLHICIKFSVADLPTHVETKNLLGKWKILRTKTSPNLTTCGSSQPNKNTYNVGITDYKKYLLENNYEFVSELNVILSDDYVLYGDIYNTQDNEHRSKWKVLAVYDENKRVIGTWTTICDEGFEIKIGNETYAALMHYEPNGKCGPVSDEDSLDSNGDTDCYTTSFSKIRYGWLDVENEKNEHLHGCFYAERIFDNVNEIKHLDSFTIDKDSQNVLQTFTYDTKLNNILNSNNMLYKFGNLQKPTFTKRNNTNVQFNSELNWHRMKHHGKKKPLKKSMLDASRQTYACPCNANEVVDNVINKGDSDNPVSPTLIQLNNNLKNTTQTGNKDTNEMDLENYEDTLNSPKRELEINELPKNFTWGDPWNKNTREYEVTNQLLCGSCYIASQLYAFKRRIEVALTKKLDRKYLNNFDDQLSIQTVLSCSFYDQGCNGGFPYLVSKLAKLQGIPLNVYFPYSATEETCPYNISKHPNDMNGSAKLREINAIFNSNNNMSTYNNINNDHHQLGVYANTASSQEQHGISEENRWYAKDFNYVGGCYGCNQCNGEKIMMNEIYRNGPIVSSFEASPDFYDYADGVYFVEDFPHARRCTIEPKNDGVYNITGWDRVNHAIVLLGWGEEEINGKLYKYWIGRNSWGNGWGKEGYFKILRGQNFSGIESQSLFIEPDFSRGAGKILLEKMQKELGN
Design: species or system P. falciparum D10 trophozoite lysates; single well
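Note: 30 min substrate incubation versus DMSO and 10 µM JCP410 controls.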

SMILES	% Inhibition @ 10 uM
Cc1ccc2onc(CNC(=O)N3CCCC3)c2c1	2.46%
CC(=O)N1CCC2(CC1)OC(=O)C(C)=C2C(=O)NC1CCN(Cc2ccccc2)CC1	1.34%
OC1CCN(Cc2ccsc2)CC1	0.708%
O=C(/C=C/c1ccc2c(c1)OCO2)NC1CCCCC1	-5.9%
CCC(C)N(CCNC(=O)c1nc(-c2cccnc2)no1)Cc1ccco1 (centres unmarked)	-1.97%
Cc1oc(-c2cccs2)nc1CSCC(=O)NC1CCCCCCC1	2.37%
O=C(Cn1cc(C(=O)C(F)(F)F)c2ccccc21)NCc1ccco1	0.13%
CC(C)NC(=O)c1cc2cc3ccc(Cl)cc3nc2o1	-1.54%
O=C(c1cc2nc(-c3ccccc3)cc(C(F)(F)F)n2n1)N1CCCCC1	-3.27%
CCOC(=O)N1CCN(Cc2nc3c(c(=O)n(C)c(=O)n3C)n2Cc2c(F)cccc2Cl)CC1	-4.14%
Cc1ccc2nc(N3CCN(C4CCCCC4)CC3)c(-n3nc(C)cc3C)nc2c1	0.166%
COc1ccc(CC(=O)Nc2ccc(CC#N)cc2)cc1	-2.67%
Cc1cc(C)n(CC(O)Cn2cnc3c2c(=O)n(C)c(=O)n3C)n1 (centres unmarked)	1.62%
O=C(O)CCCNS(=O)(=O)c1cccc2nsnc12	1.2%
O=[N+]([O-])c1n[nH]c(-c2ccccc2)n1	-2.32%
O=C(Nc1cccc(O)c1)c1ccccc1	4.83%
O=C(Cn1cccc1C(=O)c1ccccc1)NCCCN1CCc2ccccc2C1	-2.25%
O=C(Nc1ccc2c(c1)Cc1ccccc1-2)c1cccs1	0.13%
Cn1ncc(N)c1C(=O)Nc1cccc(C(F)(F)F)c1	-2.63%
C=CCc1cccc2cc(C(=O)Nc3ccc(C)cc3)c(=O)oc12	3.33%
CCOc1ccc(NC(=O)CN(c2cccc(F)c2)S(C)(=O)=O)cc1	1.1%
O=C(c1cccc2ccccc12)N(Cc1ccc(Cl)cc1)C1CCS(=O)(=O)C1 (centres unmarked)	8.95%

SMILES	% Inhibition @ 10 uM
Cc1ccccc1S(=O)(=O)Cc1ccc(C(=O)NC2CCCCC2C)o1 (centres unmarked)	-4.96%
COC(=O)c1ccc2c(c1)C(=O)/C(=C/c1cccc(OC)c1)O2	-1.37%
Clc1ccccc1-c1nnc(-c2ccc3c(c2)OCO3)o1	-3.8%
COC(=O)c1c(N2C(C)=CC(C(F)(F)F)(C(F)(F)F)C(C#N)=C2N)sc2c1CCCC2	7.1%
Cc1cc(/C=C2/NC(=O)N(c3ccc(Cl)cc3)C2=O)c(C)n1C(C)C	-9.2%
COc1ccc(C/N=C2\C=C(O)OC23CCCCC3)cc1	4.95%
CC(C)N(Cc1ccccc1)C(=O)COc1ccccc1	-4.31%
COc1ccc(Br)cc1CNC(=O)C1CCN(S(=O)(=O)N2CCC(C)CC2)CC1	-6.88%
O=C(Nc1ccccc1)N(Cc1ccccc1)Cc1ccccc1	-2%
CSc1nnc2c(n1)[nH]c1c(C)cccc12	0.884%
Cc1nnc(NC(=O)CN2C(=O)S/C(=C\c3ccc(Cl)cc3)C2=O)s1	6.42%
c1cc(CSc2nc3c(ccc4nsnc43)[nH]2)c2nsnc2c1	3.88%
O=C(Nc1cccc(O)c1)/C(=C\c1cccs1)NC(=O)c1ccccc1	4%
CCO/C(O)=C1/C(C)=NC2=C(C(=O)CCC2)C1c1cccnc1 (centres unmarked)	-3.5%
Nc1nnc(SCC(=O)c2ccc(-c3ccccc3)cc2)s1	3.61%
O=C(c1cnn(-c2ccccc2)c1-n1cccc1)N1CCCC(C(=O)N2CCC3(CC2)OCCO3)C1 (centres unmarked)	1.38%
CC1(C)CC(=O)C2=C(C1)c1c(ccc3ccccc13)NC2c1ccccc1F (centres unmarked)	-8.03%
O=C(CN1CCN(Cc2ccccc2Cl)C1=O)NCC1CCCO1 (centres unmarked)	-2.99%
CCOc1ccc(CCNC(=O)c2cncs2)cc1OCC	-1.05%
COc1cc(OC)cc(C(=O)Nc2nc3c(C)cccc3s2)c1	-4.63%
Cc1ccccc1Cn1cc(NC(=O)c2ccccc2Br)cn1	-2.03%
CCN1CCCC1CNC(=O)c1cnn(-c2ccc(C)cc2)c1C1CCN(C(=O)OC(C)(C)C)CC1 (centres unmarked)	8.68%

SMILES	% Inhibition @ 10 uM
Cc1cccc(-c2nc(CS(=O)CC(=O)NCc3ccccc3Cl)c(C)o2)c1 (centres unmarked)	-4.71%
Cn1c(=O)c2c(ncn2CC(=O)NC(c2ccccc2)c2ccccc2)n(C)c1=O	-4.68%
O=C1C2C(C(=O)N1c1ccc(Cl)cc1)C1C=CC2C12CC2c1ccccc1 (centres unmarked)	-2.65%
COc1ccc2oc(=O)c(C(=O)N3CCN(C)CC3)cc2c1	-0.48%
COc1ccccc1/C=C/C=C1\N=C(c2ccc(C)cc2)OC1=O	6.67%
Cc1[nH]c2ccc(Br)cc2c1CCN1C(=O)OC(C)(C)C1(C)O (centres unmarked)	-2.54%
O=c1c(Oc2ccc3ccccc3c2)c(C(F)(F)F)oc2c(CN3CCOCC3)c(O)ccc12	2.36%
CC(CNc1nc2c(-c3cccc(F)c3)nnn2c2ccccc12)c1ccccc1 (centres unmarked)	-4.69%
O=C(NCc1ccc2c(c1)OCO2)c1ccc(CS(=O)(=O)c2ccc(Br)cc2)o1	0.458%
CN1C2=NCCCN2C(=O)c2ccccc21	-3.44%
N=C(NOC(=O)COc1ccccc1)c1ccccn1	-3.06%
Cc1cccc2sc(NC(=O)CCN3C(=S)NC(C)(C)CC3C)nc12 (centres unmarked)	-4.23%
O=C1c2ccccc2C(=O)N1CSc1ccccn1	-6.59%
COC(=O)c1cn(C(=O)CCc2ccccc2)c2ccccc12	-2.65%
O=C(O)c1cccc(COCC(F)(F)F)c1	-3.13%
CCc1nn(CC(=O)N2CCc3ccccc3C2)c(=O)c2cc3occc3n12	-5.63%
Cc1c(C2C(C#N)=C(N)OC3=C2C(=O)CCC3)cnn1C (centres unmarked)	-0.105%
O=C(Nc1ccc(OCc2ccccc2)cc1)C1CCCO1 (centres unmarked)	-1.6%
N#Cc1c(NC(=O)CSc2ncccn2)sc2c1CCC2	11.3%
CCN(CC)CCSc1nnc(Nc2ccccc2)n1-c1ccccc1	-2.59%
O=S(=O)(c1cccc(Cl)c1)N1CCN(Cc2ccc3c(c2)OCO3)CC1	-10.2%
